# Reference: the BET-seq Pho4 binding data (Le et al. 2018)
# The other results are listed elsewhere or left out. These are noisy estimates, calculated here from bound and input reads.
# Biological target: T1, Pho4 (S. cerevisiae) (UniProt P07270)
# T1 sequence: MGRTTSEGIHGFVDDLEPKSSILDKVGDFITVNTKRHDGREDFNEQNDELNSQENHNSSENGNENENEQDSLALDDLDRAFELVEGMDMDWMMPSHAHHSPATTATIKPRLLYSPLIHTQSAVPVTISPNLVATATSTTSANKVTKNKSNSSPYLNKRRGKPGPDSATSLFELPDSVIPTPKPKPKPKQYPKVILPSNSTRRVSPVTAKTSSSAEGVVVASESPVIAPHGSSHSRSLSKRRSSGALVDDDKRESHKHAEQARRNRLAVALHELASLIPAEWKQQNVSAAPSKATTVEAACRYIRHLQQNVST
# Assay: relative binding free energy (BET-seq); higher = weaker binding
# Conditions: reference: library average
row,Sequence,relative binding free energy [kcal/mol]
1,TTTTACACGTGATATG,0.21
2,ATAGTCACGTGGAGCG,0.07
3,TCTGGCACGTGGATTA,0.07
4,GGTGGCACGTGCCTGG,-0.29
5,GAGTGCACGTGGGGTA,-0.22
6,GACGTCACGTGTGGAT,0.24
7,TAATGCACGTGATAGA,0.15
8,AATTTCACGTGGAGCG,0.31
9,TATTACACGTGTTGAA,0.2
10,CATGGCACGTGAAGGA,0.24
11,TTAGTCACGTGGCTGG,0.09
12,GTAGGCACGTGGTGCT,-0.21
13,CGTTTCACGTGCAGTG,0.22
14,CTTCTCACGTGGGATG,0.11
15,GGGGTCACGTGATGCC,0.28
16,GTGGACACGTGTTCTG,-0.03
17,GATGGCACGTGTGATG,0.09
18,GGCAGCACGTGATTGT,0.07
19,AATGACACGTGGAGGG,-0.07
20,TTGGACACGTGTGAAG,0.06
21,AGTAACACGTGGTGGT,-0.19
22,TGATTCACGTGAAGTG,0.36
23,TGGCCCACGTGGGAGG,-0.37
24,GTTATCACGTGATGAA,0.28
25,TAACGCACGTGGTCGT,-0.12
26,TAGTTCACGTGTAGAG,0.22

row,Sequence,relative binding free energy [kcal/mol]
1,AGTTACACGTGTTAAA,0.16
2,GAAGGCACGTGTGGAA,-0.03
3,TGTGGCACGTGGTGGT,-0.11
4,TGGGTCACGTGCATCG,0.06
5,GGGTTCACGTGGGTGC,0.19
6,CTTTACACGTGGTTGG,0
7,TTACGCACGTGTGTGT,0.04
8,TAGGGCACGTGGTAGC,-0.19
9,ACTGTCACGTGGGTTT,0
10,AATAACACGTGTGATT,0.06
11,TTGTGCACGTGGATAG,0.02
12,AGGTGCACGTGATCGG,-0.04
13,TGTCTCACGTGTTCGG,0.1
14,TTATTCACGTGTTGTC,0.28
15,GGTTACACGTGCGGCG,0.01
16,ATTTTCACGTGTCGCT,0.17
17,AGTTGCACGTGTTGCA,-0.02
18,AGGCTCACGTGTGTGG,0.28
19,CTAGGCACGTGGGGCA,-0.35
20,GTTGCCACGTGGTTGT,-0.17
21,TGTGACACGTGACTGG,0.09
22,AGTTACACGTGTGAGT,0.28
23,TTCAACACGTGTGGTT,0.15
24,ATTGTCACGTGGCAAA,0.02
25,TTTATCACGTGGAGGC,0.26
26,TTCCGCACGTGGTGGT,-0.12

row,Sequence,relative binding free energy [kcal/mol]
1,TTTGACACGTGGATAT,0.01
2,AGTGGCACGTGAGGAC,0.08
3,TGTTGCACGTGTGTAC,-0.03
4,TTCACCACGTGTGGTT,0.09
5,GTCAGCACGTGTATTT,0.03
6,CTTGTCACGTGGGGCG,-0.02
7,CTTGGCACGTGGTGTT,-0.2
8,TTTCTCACGTGCGGGG,0.29
9,TATGGCACGTGACAAT,0.13
10,TTTGTCACGTGGCTTT,0.04
11,TTCCGCACGTGATGGT,0.09
12,GGGACCACGTGGTGGC,-0.1
13,TCGGTCACGTGAATGG,0.26
14,GTTAGCACGTGGTCTT,-0.11
15,TTATTCACGTGACGTA,0.12
16,TGTGGCACGTGCTAAT,-0.08
17,TAGTTCACGTGAATGG,0.43
18,TGATTCACGTGTTATG,0.25
19,CGGAACACGTGAGGTT,0.38
20,GATTTCACGTGTTAGA,0.31
21,TTTGTCACGTGTAAGA,0.12
22,TGGTACACGTGTCTTA,0.12
23,GTAGTCACGTGAATGA,0.38
24,TTAGTCACGTGCAGGG,0.01
25,TTCGGCACGTGTGAGT,-0.04
26,TGCCTCACGTGTGTAG,0.26

row,Sequence,relative binding free energy [kcal/mol]
1,AGATGCACGTGGCGTT,-0.17
2,GTCTACACGTGCGTGT,0.25
3,AATGACACGTGGTAGT,-0.14
4,TGGGCCACGTGAGGTT,0.26
5,AGCAGCACGTGCAGGG,-0.1
6,TTCGTCACGTGTCGTG,-0.09
7,TTTTACACGTGTGTTA,0.09
8,CTAAGCACGTGGTGTG,-0.28
9,GGGTTCACGTGAAAAT,0.36
10,TGGGGCACGTGGCGCT,-0.25
11,GTGTGCACGTGCGAGG,-0.14
12,TTCTGCACGTGGTGGC,-0.02
13,GAGACCACGTGGGGTG,-0.1
14,TAATGCACGTGTCAGG,0.02
15,TTAAGCACGTGGCGGG,-0.23
16,GTGACCACGTGGGGGG,-0.18
17,CCGATCACGTGGTGGT,0.23
18,ATCATCACGTGTATTT,0.35
19,GGTCGCACGTGCGTGG,-0.09
20,ATGGGCACGTGGTTCA,-0.12
21,AGGGTCACGTGGCAAT,-0.04
22,GTAGTCACGTGGATGG,0.19
23,GGAGTCACGTGCTAGG,0.09
24,GGAGTCACGTGTGTCA,0.17
25,CGGGTCACGTGCAGTT,0.06
26,TTAAACACGTGCAGGG,0.12

row,Sequence,relative binding free energy [kcal/mol]
1,TCAGCCACGTGTTGTG,0
2,GCGATCACGTGAAGGG,0.31
3,TAGTTCACGTGATGGC,0.5
4,TGGATCACGTGGTTAG,0.13
5,CACGTCACGTGTGGTT,0.03
6,CGATGCACGTGGGTGA,-0.24
7,TGGGTCACGTGTCGGG,0.22
8,AAAATCACGTGCGGGG,0.26
9,CGAGGCACGTGATTTG,0.02
10,GGCTGCACGTGTTCGT,0.01
11,CGTGGCACGTGTTGTA,-0.13
12,GGCGCCACGTGGGAGT,-0.2
13,TGATACACGTGCTGGG,0.1
14,GTATACACGTGGGGGG,-0.06
15,GTGTACACGTGATGGG,0.28
16,AGGTTCACGTGCATGT,0.22
17,TCGTTCACGTGTTGTT,0.27
18,GGGGTCACGTGATTTG,0.28
19,TTGGACACGTGGTGTT,0.01
20,GTGTACACGTGTAGTT,0.1
21,GTTTTCACGTGCTTTT,0.31
22,TTCGTCACGTGTGAGC,0.24
23,AGTTGCACGTGGGCAA,-0.2
24,TTGAGCACGTGTATTG,-0.05
25,ATTAGCACGTGGCTTG,-0.11
26,ATGTCCACGTGTTTGA,0.02

row,Sequence,relative binding free energy [kcal/mol]
1,TGCTGCACGTGTTATT,-0.03
2,TTTTGCACGTGCGTAT,-0.05
3,TTTTTCACGTGATACG,0.26
4,AATTTCACGTGCTTGG,0.16
5,GCGGGCACGTGCGAGT,-0.06
6,GTGGTCACGTGAGCTG,0.31
7,CTGTGCACGTGTATAT,-0.05
8,ATATGCACGTGAAGTG,0.14
9,TGGGGCACGTGGAGAC,-0.06
10,TAAATCACGTGCGGTG,0.33
11,TCTGACACGTGTTGAT,0.11
12,GGTGTCACGTGTATCA,0.11
13,GATAGCACGTGTTTTT,0.01
14,AGGTGCACGTGTCAAT,0.05
15,GCTTACACGTGTTTGT,0.13
16,AGTTTCACGTGTTCCG,0.36
17,TAGATCACGTGGGGGA,0.12
18,ATTGTCACGTGAGTCA,0.33
19,GTAGTCACGTGGTTCG,0.09
20,TAAATCACGTGACGTT,0.33
21,GTCTACACGTGGGGTA,0.01
22,GTGTCCACGTGTTCGG,0.15
23,AGATTCACGTGAGCGT,0.32
24,CTTTACACGTGGGGGA,0.07
25,CACTGCACGTGGGTGG,-0.22
26,TGTGACACGTGGGGAC,0.02

row,Sequence,relative binding free energy [kcal/mol]
1,GCTTACACGTGAGTTA,0.49
2,GGCAGCACGTGGGCGC,-0.13
3,GTTTGCACGTGGATCG,0.12
4,TCTGGCACGTGAGGTA,0.15
5,TTGGACACGTGTATAG,0.06
6,GTAGACACGTGGTGGT,-0.02
7,CTTGTCACGTGGTTAT,0.04
8,GGTGACACGTGAAGTG,0.34
9,CGGGGCACGTGAATGC,0.17
10,GGGGTCACGTGGCCTG,0.06
11,TTTTTCACGTGCGGCG,0.28
12,GGACGCACGTGTAGTT,-0.05
13,TAGTACACGTGATGGA,0.23
14,GTAGACACGTGTGTAC,0.3
15,TAGTCCACGTGGCGGG,0.01
16,AGCAGCACGTGGGTAT,-0.08
17,TGTCGCACGTGCCGGG,-0.1
18,GTCTGCACGTGGGTTT,-0.05
19,TAAGTCACGTGGGCAT,0.03
20,ATGGGCACGTGTTCAG,-0.21
21,GGCGGCACGTGGGCTT,-0.35
22,ACTTTCACGTGGGATT,0.18
23,ATCGACACGTGTAGGG,-0.01
24,TAGTTCACGTGGAATT,0.38
25,CTGGCCACGTGGGTTA,-0.11
26,AAAAACACGTGTGGGT,0.12

row,Sequence,relative binding free energy [kcal/mol]
1,GGTGTCACGTGTTTGA,0.19
2,CTAATCACGTGTGTTG,0.15
3,CGTGTCACGTGTAGTA,-0.01
4,CATTGCACGTGCTTGG,0
5,CTGAGCACGTGTGGGA,-0.07
6,GTTTGCACGTGTGTGG,0.12
7,GTGGACACGTGGCAGT,-0.07
8,GTATCCACGTGTTGAT,0
9,AGGAGCACGTGGTTAA,-0.08
10,TCAGTCACGTGATGAG,0.16
11,CTAGTCACGTGAGGCT,0.34
12,TTGATCACGTGTAGTC,0.18
13,AATGTCACGTGGTTCG,0.01
14,TGTGCCACGTGATTTG,-0.01
15,GCTTGCACGTGGAGAT,0.21
16,TGCGCCACGTGGAGTG,-0.19
17,GTGCTCACGTGAGAGG,0.42
18,GGGGGCACGTGTTAAA,-0.02
19,GTGGTCACGTGCTATA,0.16
20,AATAGCACGTGAGTTT,0.19
21,CTGAGCACGTGAAGGT,0.16
22,ATGAGCACGTGTAGGA,0.11
23,TGTGACACGTGCCTGG,-0.09
24,GTGGTCACGTGGGTGA,0.01
25,AGGGCCACGTGGGGGA,-0.17
26,CTTTGCACGTGTTTGC,-0.12

row,Sequence,relative binding free energy [kcal/mol]
1,ATGTTCACGTGCATTA,0.14
2,GATTTCACGTGTCTAT,0.39
3,TTCATCACGTGTCTTT,0.24
4,GTAAGCACGTGTGTAC,0.11
5,CGGGTCACGTGAGGGG,0.29
6,GTGATCACGTGGTGGT,0.16
7,GAGGACACGTGTGTAA,0.11
8,GCTTGCACGTGCGTGG,-0.01
9,TAGGTCACGTGAATTC,0.42
10,CGTAACACGTGGTGGC,-0.07
11,TATTGCACGTGAAAGT,0.19
12,CGGACCACGTGGTGGA,0.04
13,GAGTTCACGTGCTGTT,0.38
14,TAGGACACGTGGGCGT,-0.11
15,TTTGGCACGTGGAGTA,-0.17
16,GTTTGCACGTGATGGA,0.33
17,TGCGTCACGTGTTAGC,0.1
18,TGAGGCACGTGAGCAG,0.08
19,CATGGCACGTGATGGG,-0.05
20,GAGCTCACGTGGGGGC,0.35
21,CAATTCACGTGTGGTA,0.28
22,TGGGGCACGTGCAAGG,-0.29
